Data reported in PubChem BioAssay AID1030 (National Center for Advancing Translational Sciences (NCATS), 2008).
Among all 220,000 compounds or so, about 16,000 (7.3%) were called active. Inconclusive means that the source gave no clear call. Such entries were picked first, then a sample of the others. Calls come from the whole dose curve; as a rule, active = well fitted inhibition curve with a large enough effect (not every such curve was filed as active); inconclusive = small, poorly fitted or top-dose-only effect, or another doubt; inactive = no such curve, though single readings can be large or run the other way. Potencies beside an inconclusive call are fits to weak or partial responses and may not hold up.

biological target: Aldehyde dehydrogenase 1A1 (Homo sapiens) (UniProt P00352); assay: qHTS Assay for Inhibitors of Aldehyde Dehydrogenase 1 (ALDH1A1); settings: Purified ALDH1A1, NADH fluorescence, propionaldehyde substrate; series mostly up to 75.3 µM; activity, negative = inhibition: at the top concentration;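 for activity, negative = inhibition: plate controls were no enzyme wells and a reference inhibitor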
Potency is the fitted concentration of half-maximal effect; tags give direction and shape of the fitted curve.

Sequence of UniProt P00352 (P00352 whole entry, looked up): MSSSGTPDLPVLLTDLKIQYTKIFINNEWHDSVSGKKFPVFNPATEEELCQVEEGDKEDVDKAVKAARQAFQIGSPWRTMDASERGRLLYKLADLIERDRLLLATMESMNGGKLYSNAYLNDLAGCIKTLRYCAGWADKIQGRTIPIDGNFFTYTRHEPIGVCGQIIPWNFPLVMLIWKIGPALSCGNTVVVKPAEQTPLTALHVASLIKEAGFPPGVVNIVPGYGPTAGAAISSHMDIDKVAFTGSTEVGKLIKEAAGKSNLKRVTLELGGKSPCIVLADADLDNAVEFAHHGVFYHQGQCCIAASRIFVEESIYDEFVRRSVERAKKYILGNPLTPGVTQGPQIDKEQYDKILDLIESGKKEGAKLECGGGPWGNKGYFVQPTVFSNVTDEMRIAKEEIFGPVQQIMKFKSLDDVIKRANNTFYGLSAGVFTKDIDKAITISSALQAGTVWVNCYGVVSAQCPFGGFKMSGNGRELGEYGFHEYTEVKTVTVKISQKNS

Potency, active:
Cc1cc(C)c(S(C)(=O)=O)c(Oc2ccc(C(C)(C)C)cc2)n1 15.8 µM, CCOC(=O)C1=C(C)Nc2nnnn2C1c1ccccc1Cl (stereo not given) 0.708 µM, C(=N\Nc1nc2ccccc2[nH]1)/c1cccs1 2.82 µM

Potency, inconclusive:
O=C(COC(=O)c1n[nH]c2ccccc12)NC(=O)NCc1ccco1 35.5 µM [inhibitor, partial curve], Cc1cc(NS(=O)(=O)c2ccc(NC(NC(=O)C(C(F)(F)F)C(F)(F)F)(C(F)(F)F)C(F)(F)F)cc2)no1 35.5 µM [inhibitor, single point], CC1=CC(C)(C)Nc2ccc(OC(=O)CN3C(=O)c4ccccc4C3=O)cc21 6.31 µM [inhibitor, partial curve], CSc1ccc(-c2nc(CN3CCCCC3c3cccnc3)c(C)o2)cc1 (stereo not given) 39.8 µM [inhibitor, single point], Cc1ccc2[nH]c(=O)c(CN(Cc3ccco3)S(=O)(=O)c3c(C)ccc4nsnc34)cc2c1 25.1 µM [inhibitor, partial curve], CC(C)CC(=O)NC(=S)Nc1ccc(S(=O)(=O)NC(C)(C)C)cc1 39.8 µM [inhibitor, single point], CCS(=O)(=O)Nc1cc(C(=O)OC)ccc1C(=O)OC 25.1 µM [inhibitor, partial curve], CCOC(=O)c1c(NC(=S)Nc2ccccc2)sc2c1CCCCC2 31.6 µM [inhibitor, single point], COc1ccc(S(=O)(=O)n2nc(OC(=O)c3ccccc3Br)cc2N)cc1 39.8 µM [inhibitor, single point], Cn1ccnc1SCC(=O)c1ccc(O)cc1 39.8 µM [inhibitor, single point], Cc1cc(NC(=O)COC(=O)C2=COCCO2)c([N+](=O)[O-])cc1C 14.1 µM [inhibitor, partial curve]

activity, negative = inhibition, inactive:
COCc1cnc(C)nc1N 1.36%, COc1ccc(OC)c(NC(=O)Nc2cc(C(=O)O)ccc2C)c1 -15.2%, C=CCn1c(SCC(=O)Nc2ccccc2C)nnc1-c1ccncc1 4.91%, O=C(NCC1CCCO1)C(c1ccncc1)N(Cc1cccs1)C(=O)Cn1nnc(-c2ccc(F)cc2)n1 (stereo not given) 7.13%, CCCN(CCC)S(=O)(=O)c1ccc(NC(=O)c2cc(C(=O)OC)cc([N+](=O)[O-])c2)cc1 16%, OC1CCN(Cc2cccc(Oc3ccccc3)c2)CC1 5.86%
